# Laboratory results: ChEMBL document CHEMBL4888484, “Replenishing the malaria drug discovery pipeline: Screening and hit evaluation of the MMV Hit Generation Library 1 (HGL1) against asexual blood stage Plasmodium falciparum ,using a nano luciferase reporter read-out” (2022)
# Where “and” joins values, the source holds several entries; their conditions need not be identical. Equal values may be shown once. Hit rate of the full screen: of about 150,000 compounds, about 540 (0.36%) showed an effect of 50% or more. Some of the results follow.
# System: Plasmodium falciparum
# Experiment: Primary screen in NF54 nanoGlo assay, in single point, at 2uM, 72h; a lower Z score goes with more inhibition
# Format: functional, Erythrocyte
# Conditions: timepoint 72 hour
compound,measurement,setting,value
O=C(Oc1ccc2c(c1)CCC2)N1CCOCC1,% Inhibition,,0%
same,Z score,,0.08
Cc1nc(CCN2CCOC3(CCCC3)C2)cs1,% Inhibition,,-3%
same,Z score,,0.44
OC[C@H]1CN2CCC[C@H]2CN1c1cc(C2CC2)nc(C2CC2)n1,% Inhibition,,7%
same,Z score,,-0.74
CN1CCC(O)(c2ccco2)C(C(=O)c2ccco2)C1 (configuration not stated),% Inhibition,,-8%
same,Z score,,1.05
CN1CCCN(C(=O)Cc2cccn2-c2ccc(F)cc2)CC1,% Inhibition,,-3%
same,Z score,,0.44
c1ccc2c(C[C@H]3CCCNC3)c[nH]c2c1,% Inhibition,,-6%
same,Z score,,0.84
O=c1oc2cccnc2n1CCNC1CCCC1c1ccccc1C(F)(F)F (configuration not stated),% Inhibition,,18%
same,Z score,,-1.88
CS(=O)(=O)c1cnn2cc(CN3CCC[C@@]4(CCOC4)C3)cnc12,% Inhibition,,-5%
same,Z score,,0.77
CCC(C)C1N=C(c2ccccc2)c2cc(Cl)ccc2N(CC(=O)Nc2ccc(F)c(Cl)c2)C1=O (configuration not stated),% Inhibition,,-3%
same,Z score,,0.45
COc1ccc(-c2cc(C(=O)N3CCC4(CC3)OCCO4)n3nc(-c4ccccc4)cc3n2)cc1,% Inhibition,,-10%
same,Z score,,1.3
CCC1CCC(N(CCO)CCO)CC1 (configuration not stated),% Inhibition,,0%
same,Z score,,0.04
CC1CN2c3ccccc3CC3(C(=O)NC(=O)N(C(C)(C)C)C3=O)C2C(C)O1 (configuration not stated),% Inhibition,2 µM,2% and -4%
C=C1[C@H]2C[C@@]3([C@@H]1O)[C@@H](CC2=O)[C@@]12C4[C@@H]3C[C@@H]1[C@@](C)(CC[C@@H]2O)C[N+]4([O-])CC (some centres not stated),% Inhibition,,0%
same,Z score,,0
CCN1CCN(c2nncc3ccccc23)CC1,% Inhibition,,13%
same,Z score,,-1.16
CCc1nc(CN2[C@@H]3CC[C@H]2C[C@@H](O)C3)n[nH]1,% Inhibition,,-20%
same,Z score,,2.41
O=C(c1ccncc1)N1C[C@H](c2ccccc2)[C@@H]2[C@H]1C1CCN2CC1,% Inhibition,,-6%
same,Z score,,0.82
CC(C)C[C@H](CNC(=O)c1cccc(-c2cnco2)c1)CC(=O)O,% Inhibition,,-2%
same,Z score,,0.24
CCc1onc(C)c1CN[C@](C)(CO)Cc1ccc(Cl)cc1,% Inhibition,,-10%
same,Z score,,1.07
CCc1nsc(N2CCC[C@@H]2CF)n1,% Inhibition,,-7%
same,Z score,,0.86
O=C(NCc1ccc(N2CCNCC2)c(F)c1)[C@H]1CC1(Cl)Cl,% Inhibition,,-3%
same,Z score,,0.36
Clc1cnccc1CN[C@H]1C[C@H](N2CCOCC2)C12CCC2,% Inhibition,,-8%
same,Z score,,1.24
O=C(c1cnccn1)N1C[C@@H](c2cccc(O)c2)[C@@H]2[C@H]1C1CCN2CC1,% Inhibition,,1%
same,Z score,,-0.1
O=C1CO[C@H]2CN(Cc3ccccc3)C[C@H]2N1Cc1cccnc1,% Inhibition,,13%
same,Z score,,-1.52
Cc1cccc(=O)n1C[C@](C)(O)C(=O)Nc1nc(C2CC2)cs1,% Inhibition,,-8%
same,Z score,,0.93
CCCNc1ncc(CN2C[C@H]3c4ccccc4OC[C@@]3(C(=O)O)C2)cn1,% Inhibition,,-1%
same,Z score,,0.11
CC(C#N)CNC(=O)NC(C)Cc1ccc(F)c(Br)c1 (configuration not stated),% Inhibition,,-3%
same,Z score,,0.63
C[C@@H](Cn1cccn1)NCC(=O)Nc1cccc(Br)c1,% Inhibition,,-11%
same,Z score,,1.1
COC(=O)c1cc(Cl)cc(NC(=O)CC2CC3CCC(C2)N3)c1 (configuration not stated),% Inhibition,,0%
same,Z score,,-0.04
O=C(NC1CCCCC1)N1C[C@@H]2C[C@H](C1)c1c(-c3ccccc3F)ccc(=O)n1C2,% Inhibition,,40%
same,Z score,,-4.57
CN1C[C@@H]2CN(C(=O)Nc3cccnc3OCC(F)F)C[C@]2(C)C1,% Inhibition,,0%
same,Z score,,0.08
COc1ccc(-c2c(C(=O)O)nnn2Cc2cccc(F)c2)cc1,% Inhibition,,-18%
same,Z score,,1.98
O=C(c1cccc2[nH]c(=O)oc12)N1CCOCC(F)(F)C1,% Inhibition,,-1%
same,Z score,,0.12
c1cc(-c2ccc3c(c2)CNCC3)cc(-n2cccn2)c1,% Inhibition,,-3%
same,Z score,,0.43
CN(Cc1ccc(Cl)cc1)C[C@H](O)c1ccc(F)cc1,% Inhibition,,1%
same,Z score,,-0.16
O=C(c1ccc(Cl)cc1)[C@H]1CCCN(C2CCC2)C1,% Inhibition,,-15%
same,Z score,,1.99
Cc1nc(-c2ccccc2Br)cc([C@H]2CN3CC[C@H]2C[C@@H]3CNC(=O)c2ccc(C(C)(C)C)cc2)n1,% Inhibition,,12%
same,Z score,,-1.35
O=C(NCc1cccnc1)[C@H]1[C@@H]2CN(C/C=C/c3ccco3)C[C@@H]21,% Inhibition,,-5%
same,Z score,,0.97
CCC(CC)n1nc(C(=O)[C@H](C#N)C(=O)NC)cc1C,% Inhibition,,17%
same,Z score,,-2.02
Cc1ccc(CC(=O)N2CCN(Cc3ccc(Cl)s3)CC2)cn1,% Inhibition,,-12%
same,Z score,,1.53
CC1OCCC1NC1(c2ccccc2F)CC1 (configuration not stated),% Inhibition,,-7%
same,Z score,,0.95
CCC(=O)c1c(O)n(C2CCCCCC2)c(=O)[nH]c1=O,% Inhibition,2 µM,-11% and -9%
same,Z score,2 µM,1.37 and 1.48
CN1CCC2CCN(C(=O)c3cc(C4CC4)on3)C2C1 (configuration not stated),% Inhibition,,36%
same,Z score,,-1.16
CN1CCN(c2ncnc3[nH]ccc23)CC12CCCCC2,% Inhibition,,3%
same,Z score,,-0.63
CN(C)C(=O)c1ccc(N2CC[C@H]3CC[C@@H](C2)N3C)nc1,% Inhibition,,-4%
same,Z score,,0.7
CC[C@@H](C(=O)N(C)c1ncccc1F)N1CCCC1=O,% Inhibition,,-3%
same,Z score,,0.52
O=C(NC1CCCCC1)N1[C@H]2CC[C@@H]1c1cncnc1C2,% Inhibition,,-12%
same,Z score,,1.66
COCc1nn(CCCN2CCOC2=O)c(=O)o1,% Inhibition,,-5%
same,Z score,,0.43
O=C(CN1[C@@H]2CC[C@H]1C[C@@H](O)C2)Nc1ccc(Cl)cn1,% Inhibition,,-8%
same,Z score,,1.05
OC1C2CCCC1CN(Cc1ccncc1)C2 (configuration not stated),% Inhibition,,-12%
same,Z score,,1.89
C[C@H](NC(=O)N1CCN(c2ccc(Cl)c(Cl)c2)CC1)C(=O)N1CCC(=O)CC1,% Inhibition,,2%
same,Z score,,-0.3
CCn1cc(CNc2ncncc2C)c(=O)[nH]c1=O,% Inhibition,,-5%
same,Z score,,0.79
CCc1ccc(S(=O)(=O)Nc2ccc3[nH]c(=O)oc3c2)cc1,% Inhibition,,10%
same,Z score,,-1.8
COc1ccc(-n2c(-c3cccc4ccccc34)nc3ccccc3c2=O)cc1,% Inhibition,,1%
same,Z score,,-0.12
O=C(Cc1cccc(Cl)c1)N1C[C@@H]2CC[C@H]1CN(Cc1ccccn1)C2,% Inhibition,,-8%
same,Z score,,1
CCC[C@H](C)C(=O)Nc1ccc2[nH]cc(CCN(CCC)CC3CC3)c2c1,% Inhibition,,-8%
same,Z score,,0.89
COCCn1cncc1Cn1c(=O)cnc2ccccc21,% Inhibition,,0%
same,Z score,,0.05
Cc1cc(C(=O)N2C[C@H](c3cc(F)cc(F)c3)[C@@H]3[C@H]2C2CCN3CC2)[nH]n1,% Inhibition,,-7%
same,Z score,,1.11
Cc1cc(=O)c(C(=O)NCCc2ccccn2)c(CCc2ccccc2)n1C[C@H]1CCCO1,% Inhibition,,-20%
same,Z score,,2.6
CC(Cc1ccc(O)cc1)NC(C)c1nccn1C (configuration not stated),% Inhibition,,-17%
same,Z score,,2.64
CC(C)N1C2CCC1CN(C(=O)CCc1cccnc1)CC2 (configuration not stated),% Inhibition,,-3%
same,Z score,,0.54
NCCc1c[nH]c2cc(OCc3ccccc3)ccc12,% Inhibition,,-4%
same,Z score,,0.52
Cc1ccc(C)n1-c1c(C(=O)N2CCC3(CC2)OCCO3)sc2ncccc12,% Inhibition,,-25%
same,Z score,,2.33
c1ccc(COCCCc2nc([C@@H]3CN4CCN3CC4)no2)cc1,% Inhibition,,-6%
same,Z score,,1.18
COc1ccc2c(CC(=O)N3CC[C@H](N4CCN(C(C)C)CC4)C3)coc2c1C,% Inhibition,,7%
same,Z score,,-1.25
CCN(CC)C(=O)Oc1ccc2c(ccn2Cc2ccc(C)cc2)c1-c1cc(Cl)cc(Cl)c1,% Inhibition,,-11%
same,Z score,,1.5
C1=CC[C@@H](CN2CCCC3(C2)OCCO3)CC1,% Inhibition,,-6%
same,Z score,,0.9
CN1CCC[C@@]2(CCN(C(=O)Nc3cc4c(nn3)CCC4)C2)C1,% Inhibition,,-10%
same,Z score,,0.98
CCOCC(=O)N1[C@@H]2CC[C@H]1Cc1nc(-c3ccccc3)[nH]c(=O)c1C2,% Inhibition,,-20%
same,Z score,,2.95
O=c1n(CCN2CCOC3CCCCC32)nc2ccccn12 (configuration not stated),% Inhibition,,-7%
same,Z score,,1.39
CC(C)(C)N1C(=O)NC(=O)[C@]2(Cc3ccccc3N3CCOC[C@H]32)C1=O,% Inhibition,,-10%
same,Z score,,1.62
CCn1cc(CN2CC(C(=O)c3ccc(F)cc3)C2)cn1,% Inhibition,,-10%
same,Z score,,1.87
CN1CCC[C@@]12CCN(Cc1ccc(OCC(F)(F)F)nc1)C2,% Inhibition,,-3%
same,Z score,,0.36
Cc1c(C)[n+]([O-])c([C@@H](CC(C)C)C2C(=O)N(C)C(=O)N(C)C2=O)n1Cc1ccccc1,% Inhibition,,-1%
same,Z score,,0.07
CC(Cn1cncn1)NC1CCc2c(F)ccc(Br)c21 (configuration not stated),% Inhibition,,-13%
same,Z score,,1.43
O=C(Cc1cccc(F)c1)N1CC(N(Cc2ccccc2)C2CCOCC2)C1,% Inhibition,,5%
same,Z score,,-0.98
CCN(CC)C(=O)c1ccc(N(C)S(C)(=O)=O)c(C)c1,% Inhibition,,-10%
same,Z score,,1.92
COc1cccc(C2CCN(Cc3nc(N(C)C)no3)CC2)c1F,% Inhibition,,-2%
same,Z score,,0.29
COc1ccc(-c2n[nH]c3c2C2(C(=O)O)CC(N3)c3cc(Cl)ccc3O2)cc1 (configuration not stated),% Inhibition,,33%
same,Z score,,-3.73
CN1C(=O)C([C@H]2c3ccccc3C(=O)N2Cc2ccccc2)C(=O)N(C)C1=O,% Inhibition,,-4%
same,Z score,,0.4
Clc1ccc([C@H]2CCCCNC2)cc1,% Inhibition,,-6%
same,Z score,,1.15
O=C(NCc1noc2ccc(F)cc12)[C@H]1NCC12CCCC2,% Inhibition,,-6%
same,Z score,,1.12
Cc1c(C(=O)[C@H](C#N)C(=O)NC(C)C)cnn1CC1CCOCC1,% Inhibition,,-5%
same,Z score,,0.54
CC1c2ccccc2OC1C(=O)NCc1ccc(N2CCNCC2)c(F)c1 (configuration not stated),% Inhibition,,3%
same,Z score,,-0.34
CC(C)n1ccc(C(=O)N[C@H](C(=O)OCc2ccccc2)[C@H](C)O)n1,% Inhibition,,-8%
same,Z score,,1.05
